# Source: PubChem BioAssay AID686978 (National Center for Advancing Translational Sciences (NCATS), 2013)
# The whole screen tested about 420,000 compounds, of which about 64,000 (15%) were called active. Inconclusive results, whose numbers are uncertain, are shown with a selection of clear calls. Calls come from the whole dose curve; as a rule, active = well fitted inhibition curve with a large enough effect; inconclusive = small, poorly fitted or top-dose-only effect; inactive = flat fitted curve, though single readings scatter. No potency is given beside an inconclusive call; the fits are too rough.
# Test: qHTS for Inhibitors of human tyrosyl-DNA phosphodiesterase 1 (TDP1): qHTS in cells in absence of CPT; note: nearly all actives have a fitted effect of over 55% in size
# Settings: DT40 Tdp1-/- hTDP1 cells, no CPT, ATP luminescence, 48 h; activity change, negative = growth inhibition: at 46.2 µM (top of the series) unless noted
# Summary of the method: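 Readout: luminescence from CellTiter-Glo after 30 min in the dark at RT. Cells: DT40 Tdp1-/- with stable hTDP1, 400/well. Exposure: compounds alone, ≥48 hr, 37 °C.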
# % is set by controls: 0 for no effect and ±100 for the full control effect; potency is the fitted concentration of half-maximal effect; tags give direction and shape of the fitted curve.
Compound,Potency,"activity change, negative = growth inhibition"
CC1CN(C(=O)N2c3ccccc3Sc3ccccc32)CC(C)O1 (centres undefined),active: 11.6 µM,–
Cc1ccccc1CSc1nc2ccccc2c(=O)n1C,active: 25.9 µM,–
COc1ccc(NC(=O)C=C(C)C)cc1Cl,–,inactive: -18.8%
COc1ccc(CNC(=O)CN2C(=O)NC(C)(c3ccc(C(C)(C)C)cc3)C2=O)cc1 (centres undefined),"inconclusive [inhibitor, single point]",–
O=C(Nc1ccc(-n2cccc2)cc1)C1CC1,active: 9.2 µM,–
Cc1cc(Br)ccc1OCCCCN1CCCCC1,"inconclusive [inhibitor, single point]",–
Cc1ccc(-c2cnc(N)n2C)cc1C,"inconclusive [inhibitor, single point]",–
COCCOc1ccc(C(F)(F)F)cc1NC(=O)CN1C(=O)NC2(CCc3ccccc32)C1=O (centres undefined),"inconclusive [inhibitor, single point]",–
O=C(Nc1ccc(OC(F)(F)F)cc1)c1ccccc1-n1cnnn1,–,inactive: 6.95%
NNC(=O)c1ccc(N2CCc3ccccc32)c([N+](=O)[O-])c1,"inconclusive [inhibitor, single point]",–
COc1ccc(Cc2nnc(NC(=O)C3CCCO3)s2)cc1 (centres undefined),–,inactive: -7.19%
COC(=O)CNC(=O)C1CCN(c2nc(C)cc(C)n2)CC1,–,inactive: -0.165%
COc1ccc(N2CCN(S(=O)(=O)CCNC(=O)CCCc3ccccc3)CC2)cc1,"inconclusive [inhibitor, partial curve]",–
O=C(CCCOc1ccc(Cl)cc1Cl)N/N=C/c1cccc([N+](=O)[O-])c1,–,inactive: -25%
COc1ccc(C(CNC(=O)c2oc3ccc(OC)cc3c2C)N2CCCC2)cc1 (centres undefined),active: 16.4 µM,–
Nc1nonc1-n1nnc(C(=O)N/N=C/c2cccnc2)c1CSC1=NCCS1,–,inconclusive: -35.9% [inhibitor]
Cc1ccc(-c2nc(C(=O)NC3CCCCCC3)no2)cc1,active: 18.4 µM,–
CCc1cccc(NC(=O)c2cccc3c2C(=O)N(C2CCCCC2)C3)c1,active: 18.4 µM,–
O=C(NCC(c1cccnc1)N1CCc2ccccc21)C(=O)Nc1ccccc1F (centres undefined),"inconclusive [inhibitor, single point]",–
COc1ccc(Nc2ncnc3c2nc2n3CCCC2)cc1Cl,"inconclusive [inhibitor, single point]",–
Cc1ccc(NC(=O)C2(C)CCN2Cc2ccccc2OC(F)F)cc1 (centres undefined),"inconclusive [inhibitor, single point]",–
CCOC(=O)c1ccc(NC(=O)N2CCN(c3ccccn3)CC2)cc1,–,inactive: -25%
O=C(c1ccc(Oc2cc(Cl)cc(Cl)c2)o1)N1CCCCC1,–,inactive: -3.19%
O=S(=O)(Nc1ccc(N2CCCCC2)cc1)c1ccc(F)cc1,active: 29.1 µM,–
CCc1cc2c(NC3CCCC3)ncnc2s1,active: 4.61 µM,–

Compound,Potency,"activity change, negative = growth inhibition"
CCOC(=O)c1c(C)n(S(=O)(=O)c2ccc(C)cc2)c2ccc(NS(=O)(=O)c3ccc(C)cc3)cc12,active: 20.6 µM,–
COCCNC(=O)c1ccc(CS(=O)(=O)c2ccc(OC)cc2)o1,–,inactive: -10.7%
Cc1ccc(OCc2occc2C(=O)O)cc1,–,inactive: 3.18%
O=C(NCCCN1CCCC1=O)C1CCN(S(=O)(=O)c2cc(C(F)(F)F)ccc2Cl)CC1,"inconclusive [inhibitor, partial curve]",–
Cc1ccc(S(=O)(=O)NN=CC=CC=NNS(=O)(=O)c2ccc(C)cc2)cc1,"inconclusive [inhibitor, single point]",–
O=C(N/N=C/c1cccs1)[C@H]1C[C@@H]1c1ccccc1,–,inconclusive: -31.4% [inhibitor]
N#CC(=C1SC=CS1)c1nc(-c2ccccc2)cs1,"inconclusive [inhibitor, single point]",–
CC(NC(=O)c1cc(-c2ccc(Cl)cc2)on1)c1ccccc1 (centres undefined),"inconclusive [inhibitor, full curve]",–
CN(C)CCCN(C(=O)c1ccc(Br)s1)c1nc2cc3c(cc2s1)OCCO3,"inconclusive [inhibitor, partial curve, poor fit]",–
CCOc1ccc(OCC)c(NC(=O)CN(C)S(=O)(=O)c2ccc3nc(C)sc3c2)c1,"inconclusive [inhibitor, single point]",–
O=C1CCc2cc(S(=O)(=O)N3CCC(C(=O)Nc4nccs4)CC3)ccc2N1,"inconclusive [inhibitor, single point]",–
COc1ccc(-n2c(Cc3cccn3C)nnc2SCC(=O)Nc2ccc(C)c(Cl)c2)cc1,"inconclusive [inhibitor, single point]",–
C/C(=N\NC(=O)C(=O)Nc1cccc(C(F)(F)F)c1)c1ccc(Cl)s1,"inconclusive [inhibitor, partial curve]",–
O=C(c1ccc(OC2CCN(CCc3ccccc3)CC2)cc1)N1CCCC(O)C1 (centres undefined),–,inactive: -25%
COc1ccc(CNC(=O)c2ccc3c(c2)N(Cc2ccccc2)CCS3)cc1,active: 14.6 µM,–
C#CCNC(=O)C[C@@H]1C[C@@]2(C(=O)OCC)CCC=C2N(CCC2=CCCCC2)C1=O,"inconclusive [inhibitor, single point]",–
CC1=C(C(=O)NCc2ccc3c(c2)OCO3)C2(CCC(C)CC2)OC1=O (centres undefined),"inconclusive [inhibitor, single point]",–
COCCc1nn2c(=O)cc(COC(=O)c3cc(OC)c(OC)c(OC)c3)nc2s1,–,inactive: -13.2%
Cc1cccc(C(P(=O)(c2ccccc2)c2ccccc2)P(=O)(c2ccccc2)c2ccccc2)n1,active: 16.4 µM,–
CCOC(=O)c1nnn(CC(=O)NC(=O)Nc2ccc(F)cc2)c1C(=O)OCC,inactive,–
Cc1ccc(N2C(=O)C3CC3C2=O)cc1 (centres undefined),–,inactive: 11%
CC(C)(C)OC(=O)N(CCc1ccccc1)Cc1ccccc1OCc1ccc(NC(=O)C2CCC2)cc1,"inconclusive [inhibitor, single point]",–
CCCCN1C(=O)CCC(C(=O)O)C1c1ccc(OC)cc1 (centres undefined),–,inactive: -28.3%
O=C(c1ccc(Cl)c(Cl)c1)N1CCC(=O)N(C(COCc2cccc(C(F)(F)F)c2)Cc2ccccc2)CC1 (centres undefined),"inconclusive [inhibitor, single point]",–
